Experimental findings from the BET-seq Pho4 binding data (Le et al. 2018) are described below.

The list shows a part of the results. The energies were worked out here from pooled read counts, against the library average; single values are noisy.

The test concerns the target T1, Pho4 (S. cerevisiae) (UniProt P07270).
T1 sequence: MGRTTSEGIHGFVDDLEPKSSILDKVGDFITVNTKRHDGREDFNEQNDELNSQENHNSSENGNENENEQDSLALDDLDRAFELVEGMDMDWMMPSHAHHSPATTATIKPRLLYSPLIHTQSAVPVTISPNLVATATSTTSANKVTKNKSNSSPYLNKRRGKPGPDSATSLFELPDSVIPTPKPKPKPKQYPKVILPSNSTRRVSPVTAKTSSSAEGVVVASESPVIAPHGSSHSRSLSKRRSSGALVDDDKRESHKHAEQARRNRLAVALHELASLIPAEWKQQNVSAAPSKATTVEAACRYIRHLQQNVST
The test can be described thus: relative binding free energy (BET-seq); higher = weaker binding. As to conditions: reference: library average.
As to TTACTCACGTGTTGAT, the “relative binding free energy” value stood at 0.07 kcal/mol.

On to TATGGCACGTGGCTGC, for which the “relative binding free energy” value was -0.2 kcal/mol.

For the sequence GAGTGCACGTGGTGGC, the “relative binding free energy” value came out at 0 kcal/mol.

Regarding GGGAGCACGTGAGCGC, the “relative binding free energy” value is 0.11 kcal/mol.

Consider TGGATCACGTGAGAGA, for which the “relative binding free energy” value was determined as 0.58 kcal/mol.

TAAAACACGTGGGGTG: the “relative binding free energy” value is -0.17 kcal/mol.

With ATGGACACGTGTTGGG, the “relative binding free energy” value was 0.02 kcal/mol.

With TGTTACACGTGTTAGG, the “relative binding free energy” value came to 0.11 kcal/mol.

Turning to ATCGGCACGTGTCTGT, the “relative binding free energy” value is -0.13 kcal/mol.

GATGACACGTGAGGTT: the “relative binding free energy” value worked out at 0.28 kcal/mol.

For the sequence TCGGGCACGTGGGAGC, the “relative binding free energy” value is -0.2 kcal/mol.

As to GTATCCACGTGAAGGG, the “relative binding free energy” value turned out to be 0.34 kcal/mol.

Turning to AGTGGCACGTGTTTCT, the “relative binding free energy” value was -0.05 kcal/mol.

For the sequence AGCGTCACGTGTTGAT, the “relative binding free energy” value came out at 0 kcal/mol.

In the case of TGTCTCACGTGTATGG, the “relative binding free energy” value amounted to 0.14 kcal/mol.

Consider AAGTACACGTGAGGTG, for which the “relative binding free energy” value was determined as 0.32 kcal/mol.

ATGTGCACGTGTGGAA: the “relative binding free energy” value was 0.09 kcal/mol.

On to GTATACACGTGGTGGT, for which the “relative binding free energy” value came to 0.01 kcal/mol.

For the sequence GTGTGCACGTGGCAGT, the “relative binding free energy” value is -0.15 kcal/mol.

Turning to TTGATCACGTGAGCAG, the “relative binding free energy” value was 0.39 kcal/mol.

On to GTTGGCACGTGCCGCG, for which the “relative binding free energy” value was -0.13 kcal/mol.

In the case of AATTGCACGTGAAGGT, the “relative binding free energy” value came to 0.16 kcal/mol.

As to TGGACCACGTGGGGTC, the “relative binding free energy” value was -0.18 kcal/mol.

Consider GGACGCACGTGTAGGG, for which the “relative binding free energy” value was -0.18 kcal/mol.

AAGTGCACGTGGGAGA: the “relative binding free energy” value is -0.1 kcal/mol.

With GGAGGCACGTGAGGGG, the “relative binding free energy” value was determined as 0.19 kcal/mol.

In the case of TTGTGCACGTGTTAAC, the “relative binding free energy” value was 0.1 kcal/mol.

In the case of AATGACACGTGAGAGT, the “relative binding free energy” value was determined as 0.21 kcal/mol.

TAGTACACGTGGTGGC: the “relative binding free energy” value worked out at 0 kcal/mol.

On to TACGGCACGTGATGTG, for which the “relative binding free energy” value is -0.1 kcal/mol.

Take TGTTACACGTGACTGG: the “relative binding free energy” value was 0.23 kcal/mol.

Turning to GTTGTCACGTGCAAGT, the “relative binding free energy” value is 0.15 kcal/mol.

On to GTGATCACGTGTTGTA, for which the “relative binding free energy” value worked out at 0.13 kcal/mol.

For TGCTTCACGTGCGGAT, the “relative binding free energy” value came out at 0.19 kcal/mol.

Take GTCAGCACGTGAATGT: the “relative binding free energy” value worked out at 0.27 kcal/mol.

With TGCATCACGTGGGAGT, the “relative binding free energy” value was -0.03 kcal/mol.

With GAGCGCACGTGTGATT, the “relative binding free energy” value came to 0.17 kcal/mol.

For the sequence TGGGGCACGTGGAGCA, the “relative binding free energy” value is -0.05 kcal/mol.

With GTTGTCACGTGTATAT, the “relative binding free energy” value was 0.16 kcal/mol.

Turning to ATAGTCACGTGTGCGA, the “relative binding free energy” value is 0.17 kcal/mol.

With GGGCACACGTGGTTAG, the “relative binding free energy” value came out at 0.05 kcal/mol.

With TTAGTCACGTGAAGGA, the “relative binding free energy” value is 0.37 kcal/mol.

GTTTACACGTGCAGTG: the “relative binding free energy” value turned out to be 0.04 kcal/mol.

With TGGCGCACGTGGGACT, the “relative binding free energy” value is -0.11 kcal/mol.

Take TATTCCACGTGGTGTG: the “relative binding free energy” value is -0.07 kcal/mol.

In the case of AATTTCACGTGTGAGT, the “relative binding free energy” value is 0.29 kcal/mol.

Turning to GTTGTCACGTGTTCAT, the “relative binding free energy” value amounted to 0.1 kcal/mol.

Turning to GAAGTCACGTGCGGGA, the “relative binding free energy” value worked out at 0.13 kcal/mol.

Regarding GTTAACACGTGATGAT, the “relative binding free energy” value was found to be 0.16 kcal/mol.

Consider GGGTACACGTGTAAGG, for which the “relative binding free energy” value came out at 0.21 kcal/mol.

As to TGGATCACGTGATGAG, the “relative binding free energy” value is 0.37 kcal/mol.

Turning to TGGCGCACGTGGGGAC, the “relative binding free energy” value is -0.21 kcal/mol.

Regarding GCATTCACGTGGTAGG, the “relative binding free energy” value was found to be 0.17 kcal/mol.

As to GGCGTCACGTGTCGTG, the “relative binding free energy” value stood at 0.1 kcal/mol.

With GAGGCCACGTGAGGTT, the “relative binding free energy” value came out at 0.2 kcal/mol.

Regarding GTGGTCACGTGAGGAC, the “relative binding free energy” value stood at 0.31 kcal/mol.

With TATTGCACGTGTTAAT, the “relative binding free energy” value is 0 kcal/mol.

Consider GTGTGCACGTGTATCA, for which the “relative binding free energy” value is -0.03 kcal/mol.

For ATGTCCACGTGTTAGT, the “relative binding free energy” value was 0.1 kcal/mol.

Consider TAAGTCACGTGAATAG, for which the “relative binding free energy” value worked out at 0.32 kcal/mol.

TGATTCACGTGATTTG: the “relative binding free energy” value is 0.31 kcal/mol.

On to GAAGACACGTGTATGG, for which the “relative binding free energy” value amounted to 0.12 kcal/mol.

Regarding TTTGACACGTGTGTTA, the “relative binding free energy” value turned out to be 0.11 kcal/mol.

With ATTTTCACGTGGACGT, the “relative binding free energy” value came to 0.31 kcal/mol.

With TCGGTCACGTGTTGTA, the “relative binding free energy” value turned out to be 0.19 kcal/mol.

With TACCGCACGTGTAGTT, the “relative binding free energy” value was 0.22 kcal/mol.

For the sequence TTTGGCACGTGTCCGG, the “relative binding free energy” value is 0.07 kcal/mol.

In the case of TTTAACACGTGGGAGT, the “relative binding free energy” value stood at 0.04 kcal/mol.

Regarding GGTCACACGTGGGAAG, the “relative binding free energy” value was 0.04 kcal/mol.

Take AATATCACGTGATGTG: the “relative binding free energy” value amounted to 0.11 kcal/mol.

Regarding TTCTGCACGTGAGTTT, the “relative binding free energy” value came out at 0.21 kcal/mol.

ATTTTCACGTGGAGGA: the “relative binding free energy” value came out at 0.18 kcal/mol.

As for TAGATCACGTGGGAGC, the “relative binding free energy” value stood at 0.09 kcal/mol.

As to CTGTTCACGTGAGGAC, the “relative binding free energy” value worked out at 0.54 kcal/mol.

Regarding GGCTGCACGTGGAGGA, the “relative binding free energy” value came out at 0.12 kcal/mol.

TTGAACACGTGTGTTA: the “relative binding free energy” value was found to be 0.15 kcal/mol.

As for TATCGCACGTGCGGGT, the “relative binding free energy” value is -0.12 kcal/mol.

On to GGGTTCACGTGGTTTA, for which the “relative binding free energy” value was determined as 0.31 kcal/mol.

For TGTCTCACGTGATGCT, the “relative binding free energy” value turned out to be 0.32 kcal/mol.

Turning to GGGTTCACGTGTTTTG, the “relative binding free energy” value was 0.33 kcal/mol.

Consider TTGGCCACGTGGATAT, for which the “relative binding free energy” value came to 0.02 kcal/mol.

For GAAGGCACGTGTTTGG, the “relative binding free energy” value is -0.03 kcal/mol.

For the sequence GGCTGCACGTGCTGGG, the “relative binding free energy” value stood at 0.1 kcal/mol.

Regarding TTTGGCACGTGTATTA, the “relative binding free energy” value worked out at 0.03 kcal/mol.

In the case of AAGTCCACGTGTGTAG, the “relative binding free energy” value is 0.16 kcal/mol.

For the sequence ACGGGCACGTGTTTAT, the “relative binding free energy” value was -0.02 kcal/mol.

TATTGCACGTGAGGAA: the “relative binding free energy” value turned out to be 0 kcal/mol.

For GGAGGCACGTGGTTGT, the “relative binding free energy” value is -0.03 kcal/mol.

With TTCAGCACGTGGAAGG, the “relative binding free energy” value was 0.04 kcal/mol.

For GCGTGCACGTGCAGGG, the “relative binding free energy” value was -0.08 kcal/mol.

For the sequence GGTTTCACGTGTAAGT, the “relative binding free energy” value turned out to be 0.37 kcal/mol.

Regarding TGTTACACGTGAATTT, the “relative binding free energy” value turned out to be 0.33 kcal/mol.

For GGCGTCACGTGGAGAG, the “relative binding free energy” value stood at 0.15 kcal/mol.

For the sequence GGGGGCACGTGACGTC, the “relative binding free energy” value worked out at 0.07 kcal/mol.

On to TATATCACGTGAGCTT, for which the “relative binding free energy” value amounted to 0.2 kcal/mol.

Regarding TTAAACACGTGATGTA, the “relative binding free energy” value turned out to be 0.08 kcal/mol.

Take TACGGCACGTGTTAGG: the “relative binding free energy” value is 0.12 kcal/mol.

Regarding AGTGACACGTGTGGTA, the “relative binding free energy” value was -0.02 kcal/mol.

Consider TTAGACACGTGAGTGG, for which the “relative binding free energy” value is 0.28 kcal/mol.

Consider ATGGGCACGTGATGCA, for which the “relative binding free energy” value is -0.23 kcal/mol.

With AGTGTCACGTGGACGT, the “relative binding free energy” value was -0.09 kcal/mol.

Turning to TAGTGCACGTGAGCTT, the “relative binding free energy” value was 0.14 kcal/mol.

In the case of CTTGTCACGTGATTTA, the “relative binding free energy” value was found to be 0.28 kcal/mol.

Consider ATGTTCACGTGATAGG, for which the “relative binding free energy” value was 0.32 kcal/mol.

Consider AGATACACGTGGAAGG, for which the “relative binding free energy” value stood at 0.14 kcal/mol.

Take TAAAGCACGTGGGAGT: the “relative binding free energy” value was -0.11 kcal/mol.

As to AAGTGCACGTGATCGG, the “relative binding free energy” value is -0.08 kcal/mol.

Take TGGGACACGTGACGGG: the “relative binding free energy” value amounted to 0.11 kcal/mol.

In the case of TTGCTCACGTGTACGT, the “relative binding free energy” value turned out to be 0.38 kcal/mol.

As for GTGTACACGTGCCGGG, the “relative binding free energy” value is -0.09 kcal/mol.

For the sequence TTGTTCACGTGGCAAA, the “relative binding free energy” value came to 0.26 kcal/mol.

As to CGTGGCACGTGTTCTG, the “relative binding free energy” value was -0.1 kcal/mol.

Take TCGAGCACGTGGTTTA: the “relative binding free energy” value is -0.04 kcal/mol.

CGCAGCACGTGTGGTT: the “relative binding free energy” value is -0.04 kcal/mol.

CTAAGCACGTGGCGTG: the “relative binding free energy” value was -0.16 kcal/mol.
